Test [1] addresses full-length single-chain uPA (scuPA) (UniProt P00749). Put plainly: SPR. On the technique in general: SPR reads the build-up and loss of mass on a sensor chip optically.
Test [2] concerns the target full-length single-chain uPA (scuPA) (UniProt P00749, non-covalent, domain-swapped (D1) homodimer; N-glycosylated (Drosophila S2); disulfides; mature residues 1-277 = precursor 23-299; vector-derived N-terminal RS seen in PDB 7E17 omitted). Put plainly: SPR.

B1: soluble uPAR (suPAR), monomer (receptor)
chain: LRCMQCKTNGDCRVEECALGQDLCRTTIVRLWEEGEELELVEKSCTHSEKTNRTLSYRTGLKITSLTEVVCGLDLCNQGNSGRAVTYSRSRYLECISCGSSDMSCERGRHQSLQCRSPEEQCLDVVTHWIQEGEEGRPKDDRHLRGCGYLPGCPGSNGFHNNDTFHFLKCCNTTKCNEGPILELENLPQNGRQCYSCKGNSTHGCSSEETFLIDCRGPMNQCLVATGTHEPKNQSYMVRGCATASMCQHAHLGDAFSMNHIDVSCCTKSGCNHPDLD
Usually koff stands for the rate constant with which the complex falls apart. Read a low koff as a long-lived complex. In the case of B1, in test [1], the koff was determined as 0.000115 s⁻¹.

B2: dimeric suPAR (receptor)
chain: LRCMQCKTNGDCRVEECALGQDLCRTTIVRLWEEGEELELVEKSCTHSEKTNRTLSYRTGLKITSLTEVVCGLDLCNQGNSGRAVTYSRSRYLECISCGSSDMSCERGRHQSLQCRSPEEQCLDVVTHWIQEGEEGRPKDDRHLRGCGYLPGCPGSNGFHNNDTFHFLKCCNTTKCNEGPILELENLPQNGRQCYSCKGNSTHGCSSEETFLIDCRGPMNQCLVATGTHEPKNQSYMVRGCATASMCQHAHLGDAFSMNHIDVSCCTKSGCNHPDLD
The molecule B2 showed a koff in test [2] of 0.000129 s⁻¹.

(Values after paper PMC8964761 (2022).)
